The list shows a part of the results.
molecular target: T1, MBP-FoxP1dN (Mus musculus, UniProt P58462 326-579); assay: PD-seq (MBP pull-down with sequencing); 20 mM Tris-HCl pH 7.5, 100 mM NaCl, 1.5 mM MgCl2, 0.4 uM protein, 0.1 uM dsDNA library, 30 min, room temperature, amylose pull-down; high values mean tight binding; conditions: protein: recombinant; tags: His6-MBP; chain copies: 2; dsDNA, one strand shown
T1 sequence: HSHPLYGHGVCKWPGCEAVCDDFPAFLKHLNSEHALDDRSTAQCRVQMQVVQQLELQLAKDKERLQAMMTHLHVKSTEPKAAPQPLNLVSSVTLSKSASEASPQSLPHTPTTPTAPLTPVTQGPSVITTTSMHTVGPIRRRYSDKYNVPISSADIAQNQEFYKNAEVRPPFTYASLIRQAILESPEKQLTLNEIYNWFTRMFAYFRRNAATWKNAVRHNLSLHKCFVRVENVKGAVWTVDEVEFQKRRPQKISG
In short: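 Binding is given as reads-per-million enrichment, pull-down over input, with replicates pooled. The bait was an N-terminus-lacking mouse FoxP3 or FoxP1 fragment with a His6-MBP tag, expressed in E. coli and used at 0.4 µM with 0.1 µM Klenow-filled degenerate double-stranded DNA library for 30 min at room temperature in Tris pH 7.5 buffer with NaCl and MgCl2. Amylose resin pull-down with three washes was followed by proteinase K release, PCR barcoding and Illumina sequencing.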

Row | Sequence | binding signal
1 | GATGATTGTTCTCCCAGCTGATGAATTGTTCCGCTCGAGTAAACAAATTTTCCTAATCTTTCTGTTCAAGCGCCATCTAC | 0.966 RPM ratio (pull-down/input)
2 | GATGATTGTTCTCCCAGCTGATGAATTATTCGATTCGAGTAAACAAATTTTCCTAATCTTTCTGTTCAAGCGCCATCTAC | 1.05 RPM ratio (pull-down/input)
3 | GATGATTGTTCTCCCAGCTGATGAATTGCGCCCGTCGAGTAAACAAATTTTCCTAATCTTTCTGTTCAAGCGCCATCTAC | 1.02 RPM ratio (pull-down/input)
4 | GATGATTGTTCTCCCAGCTGATGAATTCAACTCGTCGAGTAAACAAATTTTCCTAATCTTTCTGTTCAAGCGCCATCTAC | 0.869 RPM ratio (pull-down/input)
5 | GATGATTGTTCTCCCAGCTGATGAATTGCGAAAATCGAGTAAACAAATTTTCCTAATCTTTCTGTTCAAGCGCCATCTAC | 1.24 RPM ratio (pull-down/input)
6 | GATGATTGTTCTCCCAGCTGATGAATTTTTTAAATCGAGTAAACAAATTTTCCTAATCTTTCTGTTCAAGCGCCATCTAC | 1.07 RPM ratio (pull-down/input)
7 | GATGATTGTTCTCCCAGCTGATGAATTCCCATAGTCGAGTAAACAAATTTTCCTAATCTTTCTGTTCAAGCGCCATCTAC | 0.776 RPM ratio (pull-down/input)
8 | GATGATTGTTCTCCCAGCTGATGAATTGGACATATCGAGTAAACAAATTTTCCTAATCTTTCTGTTCAAGCGCCATCTAC | 0.979 RPM ratio (pull-down/input)
9 | GATGATTGTTCTCCCAGCTGATGAATTACCTTATTCGAGTAAACAAATTTTCCTAATCTTTCTGTTCAAGCGCCATCTAC | 1.03 RPM ratio (pull-down/input)
10 | GATGATTGTTCTCCCAGCTGATGAATTGGGATAGTCGAGTAAACAAATTTTCCTAATCTTTCTGTTCAAGCGCCATCTAC | 0.897 RPM ratio (pull-down/input)
11 | GATGATTGTTCTCCCAGCTGATGAATTTAGGTCTTCGAGTAAACAAATTTTCCTAATCTTTCTGTTCAAGCGCCATCTAC | 0.898 RPM ratio (pull-down/input)
12 | GATGATTGTTCTCCCAGCTGATGAATTCAATCACTCGAGTAAACAAATTTTCCTAATCTTTCTGTTCAAGCGCCATCTAC | 0.898 RPM ratio (pull-down/input)
13 | GATGATTGTTCTCCCAGCTGATGAATTCAAGCGGTCGAGTAAACAAATTTTCCTAATCTTTCTGTTCAAGCGCCATCTAC | 0.826 RPM ratio (pull-down/input)
14 | GATGATTGTTCTCCCAGCTGATGAATTTTCTGCTTCGAGTAAACAAATTTTCCTAATCTTTCTGTTCAAGCGCCATCTAC | 1 RPM ratio (pull-down/input)
15 | GATGATTGTTCTCCCAGCTGATGAATTAGGTCTATCGAGTAAACAAATTTTCCTAATCTTTCTGTTCAAGCGCCATCTAC | 0.838 RPM ratio (pull-down/input)
16 | GATGATTGTTCTCCCAGCTGATGAATTAATTGTCTCGAGTAAACAAATTTTCCTAATCTTTCTGTTCAAGCGCCATCTAC | 1.05 RPM ratio (pull-down/input)
17 | GATGATTGTTCTCCCAGCTGATGAATTGTCTCGGTCGAGTAAACAAATTTTCCTAATCTTTCTGTTCAAGCGCCATCTAC | 0.95 RPM ratio (pull-down/input)
18 | GATGATTGTTCTCCCAGCTGATGAATTTGATTTGTCGAGTAAACAAATTTTCCTAATCTTTCTGTTCAAGCGCCATCTAC | 1.11 RPM ratio (pull-down/input)
19 | GATGATTGTTCTCCCAGCTGATGAATTGGGGGCCTCGAGTAAACAAATTTTCCTAATCTTTCTGTTCAAGCGCCATCTAC | 0.781 RPM ratio (pull-down/input)
20 | GATGATTGTTCTCCCAGCTGATGAATTACTCAAGTCGAGTAAACAAATTTTCCTAATCTTTCTGTTCAAGCGCCATCTAC | 1.02 RPM ratio (pull-down/input)

Row | Sequence | binding signal
21 | GATGATTGTTCTCCCAGCTGATGAATTTGCCTTATCGAGTAAACAAATTTTCCTAATCTTTCTGTTCAAGCGCCATCTAC | 1.05 RPM ratio (pull-down/input)
22 | GATGATTGTTCTCCCAGCTGATGAATTCGAGCCGTCGAGTAAACAAATTTTCCTAATCTTTCTGTTCAAGCGCCATCTAC | 0.827 RPM ratio (pull-down/input)
23 | GATGATTGTTCTCCCAGCTGATGAATTCCGAGATTCGAGTAAACAAATTTTCCTAATCTTTCTGTTCAAGCGCCATCTAC | 0.799 RPM ratio (pull-down/input)
24 | GATGATTGTTCTCCCAGCTGATGAATTGACGGAGTCGAGTAAACAAATTTTCCTAATCTTTCTGTTCAAGCGCCATCTAC | 0.914 RPM ratio (pull-down/input)
25 | GATGATTGTTCTCCCAGCTGATGAATTGTGCCTTTCGAGTAAACAAATTTTCCTAATCTTTCTGTTCAAGCGCCATCTAC | 1.1 RPM ratio (pull-down/input)
26 | GATGATTGTTCTCCCAGCTGATGAATTTTTCGAATCGAGTAAACAAATTTTCCTAATCTTTCTGTTCAAGCGCCATCTAC | 0.937 RPM ratio (pull-down/input)
27 | GATGATTGTTCTCCCAGCTGATGAATTAAGGTAGTCGAGTAAACAAATTTTCCTAATCTTTCTGTTCAAGCGCCATCTAC | 0.878 RPM ratio (pull-down/input)
28 | GATGATTGTTCTCCCAGCTGATGAATTGTCGGCATCGAGTAAACAAATTTTCCTAATCTTTCTGTTCAAGCGCCATCTAC | 1.12 RPM ratio (pull-down/input)
29 | GATGATTGTTCTCCCAGCTGATGAATTTATTATGTCGAGTAAACAAATTTTCCTAATCTTTCTGTTCAAGCGCCATCTAC | 1.4 RPM ratio (pull-down/input)
30 | GATGATTGTTCTCCCAGCTGATGAATTGTAGGGATCGAGTAAACAAATTTTCCTAATCTTTCTGTTCAAGCGCCATCTAC | 0.87 RPM ratio (pull-down/input)
31 | GATGATTGTTCTCCCAGCTGATGAATTCTCTGTATCGAGTAAACAAATTTTCCTAATCTTTCTGTTCAAGCGCCATCTAC | 0.938 RPM ratio (pull-down/input)
32 | GATGATTGTTCTCCCAGCTGATGAATTATCAATGTCGAGTAAACAAATTTTCCTAATCTTTCTGTTCAAGCGCCATCTAC | 1.03 RPM ratio (pull-down/input)
33 | GATGATTGTTCTCCCAGCTGATGAATTGTTCTCCTCGAGTAAACAAATTTTCCTAATCTTTCTGTTCAAGCGCCATCTAC | 1.17 RPM ratio (pull-down/input)
34 | GATGATTGTTCTCCCAGCTGATGAATTAGTTTCTTCGAGTAAACAAATTTTCCTAATCTTTCTGTTCAAGCGCCATCTAC | 0.994 RPM ratio (pull-down/input)
35 | GATGATTGTTCTCCCAGCTGATGAATTGGTCGCGTCGAGTAAACAAATTTTCCTAATCTTTCTGTTCAAGCGCCATCTAC | 1.03 RPM ratio (pull-down/input)
36 | GATGATTGTTCTCCCAGCTGATGAATTGCTGAGGTCGAGTAAACAAATTTTCCTAATCTTTCTGTTCAAGCGCCATCTAC | 0.892 RPM ratio (pull-down/input)
37 | GATGATTGTTCTCCCAGCTGATGAATTAATGTGATCGAGTAAACAAATTTTCCTAATCTTTCTGTTCAAGCGCCATCTAC | 1.17 RPM ratio (pull-down/input)
38 | GATGATTGTTCTCCCAGCTGATGAATTGCTTTAATCGAGTAAACAAATTTTCCTAATCTTTCTGTTCAAGCGCCATCTAC | 1.16 RPM ratio (pull-down/input)
39 | GATGATTGTTCTCCCAGCTGATGAATTGTACTACTCGAGTAAACAAATTTTCCTAATCTTTCTGTTCAAGCGCCATCTAC | 0.971 RPM ratio (pull-down/input)
40 | GATGATTGTTCTCCCAGCTGATGAATTAATAGTCTCGAGTAAACAAATTTTCCTAATCTTTCTGTTCAAGCGCCATCTAC | 0.952 RPM ratio (pull-down/input)
